In all, about 320,000 compounds went through this assay and about 200 (0.062%) were called active. This list was built around the results that the source calls inconclusive (neither active nor inactive); the mix of calls is not that of the screen. The call rests on the fitted dose curve; in most records, active means well fitted activation curve with a large enough effect; inconclusive means small, poorly fitted or top-dose-only effect; inactive means no such curve, though single readings can be large or run the other way. No potency is given beside an inconclusive call; the fits are too rough.
Test: qHTS assay for re-activators of p53 using a Luc reporter; further: nearly all actives have a fitted effect of over 45% in size
Conditions: H1299 p53-A138V BP100-luciferase reporter, luminescence, 24 h; series mostly up to 92.2 µM
Summary of the method: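 H1299 (p53-null), stable ts p53-A138V + BP100-Luc; 1000 cells/well, Opti-MEM/10% FBS; cpd 4 pt, 1:5; 24 h, 37 deg C, 5% CO2; detection reagent 10 min RT; luminescence.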
Potency means the concentration at half of the fitted maximal effect; tags describe the fitted curve by direction and shape.

| SMILES | Potency |
| --- | --- |
| CCc1ccc2[nH]c(=O)c(CN(CCN(CC)CC)C(=O)NC3CCCCC3)cc2c1 | inconclusive [activator, partial curve, poor fit] |
| COc1ccccc1NC(=O)c1cc(Cl)nnc1Cl | inconclusive [activator, single point] |
| O=C(/C=C/c1ccc(F)cc1)NC(=S)N1CCN(c2ccccn2)CC1 | inactive |
| Cc1ccccc1C(=O)NNC(=S)Nc1cccc(C(F)(F)F)c1 | inconclusive [activator, single point] |
| O=C(Nc1ccc(F)cc1)Nc1ccccc1F | inconclusive [activator, single point] |
| COc1ccc(N2C(=O)/C(=C\c3ccco3)N=C2SCC(=O)N(C(C)C)C(C)C)cc1Cl | inactive |
| C[n+]1cnc(-c2ccccc2)cc1-c1ccccc1 | inactive |
| CCOC(=O)c1cn2nc(Oc3ccc(C)cc3)ccc2n1 | inconclusive [activator, partial curve, poor fit] |
| COc1ccc(C(=O)N/N=C/c2ccc(OC)c(CN3CCN(c4ccc(F)cc4)CC3)c2)cc1 | inactive |
| CCN(CC)c1ccc(/C=N/NC(=O)c2ccc(Br)o2)cc1 | inconclusive [activator, partial curve, poor fit] |
| O=C(CN(CCc1ccccc1)C(=O)c1csnn1)NCc1ccc(F)cc1 | inactive |
| O=C(N/N=C1\CCc2ccccc21)c1ccccc1Cl | inconclusive [activator, partial curve, poor fit] |
| CCc1ccc(-c2nc(CCl)cs2)cc1 | inconclusive [activator, partial curve, poor fit] |
| CCc1ccc(Oc2cc(C)nc(N)n2)cc1 | inconclusive [activator, partial curve, poor fit] |
| Cc1ccsc1/C=C(\C(=O)c1ccc(OC(C)C)cc1)c1nc2ccccc2o1 | inconclusive [activator, partial curve, poor fit] |
| c1ccc(N(c2ccccc2)c2nc(N3CCCC3)nc(-n3ccnc3)n2)cc1 | inactive |
| CCOC(=O)CSC1=NC(=O)/C(=C\c2ccc(Cl)cc2)S1 | inconclusive [activator, full curve, poor fit] |
| Clc1ccccc1CSc1ncn(-c2ccccc2)n1 | inconclusive [activator, partial curve, poor fit] |
| Cn1c(=O)n(C)c2cc(NC(=O)COc3ccc(F)cc3F)ccc21 | inconclusive [activator, single point] |
| Cc1cnc(NC(=O)c2sc3ccccc3c2Cl)s1 | inconclusive [activator, partial curve, poor fit] |
| O=C(Nc1cccnc1Cl)c1cc(-c2ccco2)on1 | inactive |
| CCN(CC(=O)Nc1ccccc1C(F)(F)F)C(=O)CCc1nc2sc3c(c2c(=O)[nH]1)CCCC3 | inactive |
| O=C(CC(c1ccccc1O)N1CCCCC1)N1CCCCC1 (configuration not stated) | inconclusive [activator, single point] |
| COc1cc(CN2CCCCC2)ccc1OCc1ccccc1 | inconclusive [activator, full curve, poor fit] |

| SMILES | Potency |
| --- | --- |
| C[C@@H](C(=O)NCc1ccc(S(C)(=O)=O)cc1)[C@H]1C[C@]1(C)[C@H](NC(=O)OCc1ccccc1)c1ccccc1 | inactive |
| CC1CCCN(C(=O)c2ccc3c(=O)n(Cc4ccc5c(c4)OCO5)c(=S)[nH]c3c2)C1 (configuration not stated) | inconclusive [activator, single point] |
| CC(NC(=O)CCc1nnc(Cc2cccc(C(F)(F)F)c2)o1)C1CC1 (configuration not stated) | inactive |
| O=C(N/N=C/c1ccc(Cl)cc1)c1n[nH]c2c1CCCC2 | inconclusive [activator, full curve, poor fit] |
| COC(=O)c1ccccc1NC(=O)N1CCN(C(=O)c2ccco2)CC1 | inactive |
| Cc1ccc(C(=O)NC(c2ccccc2)C(Cl)Cl)cc1 (configuration not stated) | inconclusive [activator, partial curve, poor fit] |
| CCn1c(/C=C/c2ccccc2)nc2ccccc21 | inactive |
| C/C(=N/NC(=O)c1cnccn1)c1cccs1 | inconclusive [activator, partial curve, poor fit] |
| CCNC(=S)N/N=C1\CCCCc2ccccc21 | inactive |
| COc1ccc(S(=O)(=O)NNC(=O)c2cc3c4ccccc4n(C)c3s2)cc1 | inactive |
| Cn1nnc(NC(=O)c2ccc(C(C)(C)C)cc2)n1 | inconclusive [activator, partial curve, poor fit] |
| CC(C)C(NS(=O)(=O)c1ccccc1F)C(=O)OCC(=O)NCc1ccco1 (configuration not stated) | inactive |
| CCN1CCN(CC(=O)Nc2sc3c(c2C#N)CCC(C)C3)CC1 (configuration not stated) | inconclusive [activator, single point] |
| COC(=O)c1ccccc1NC(=O)Nc1cccnc1 | inactive |
| CCCNC(=O)c1cc2ccccc2c(=O)o1 | inconclusive [activator, single point] |
| CC1(C)SC(=S)N(/N=C/c2ccc(O)cc2)C1N(O)C(=O)Nc1ccc([N+](=O)[O-])cc1 (configuration not stated) | inactive |
| O=C(NCc1ccc(F)cc1)c1c2c(nc3ccccc13)CCC2 | inactive |
| CCc1ccc(-c2nc(SCC(=O)c3c(N)n(C4CC4)c(=O)[nH]c3=O)n[nH]2)cc1 | inconclusive [activator, single point] |
| CC(/C=N/n1c(-c2ccc(C)cc2)n[nH]c1=S)=C\c1ccco1 | inactive |
| Cc1cccc(-n2ncc3c(NCc4ccccn4)ncnc32)c1 | inconclusive [activator, partial curve, poor fit] |
| O=S(=O)(Nc1ccc(-c2ccc(N3CCOCC3)nn2)cc1)c1ccc(Cl)c(Cl)c1 | inactive |
| C/C(=N\NC(=O)c1cc2ccccc2cc1O)c1ccccn1 | inconclusive [activator, partial curve, poor fit] |
| CC(=O)c1cccc(NC(=O)NCc2ccccn2)c1 | inconclusive [activator, partial curve, poor fit] |
